Data taken from the supplement of paper PMC9446081.
Among all 39,000 compounds or so, about 220 (0.56%) showed activity. Some of the results follow.

These molecules were tested on Escherichia coli K-12 BW25113 (assay: relative growth (OD600 normalised to plate interquartile mean) (fraction); higher = less growth inhibition, active = 0.2 or less). Conditions: 50 µM; LB; incubation time: overnight (16-24 h).
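Also: static incubation at 37 °C against the wild-type strain, values averaged over two biological replicates.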

Compound	relative growth
CC(C)NC(=O)N[C@@H]1C=C[C@@H](CC(=O)NCCCN(C)C)O[C@H]1CO	inactive: 1.02
COc1ccc(S(=O)(=O)Nc2ccc3c(c2)C(=O)N([C@H](C)CO)C[C@@H](C)[C@@H](CN(C)Cc2ccc(C(=O)O)cc2)OCCCC[C@@H](C)O3)cc1	inactive: 0.993
O=C(O)COCC(=O)NCc1ccco1	inactive: 0.921
COCCCNC(=O)[C@@]1(Sc2ccc(C)cc2)CC(=O)N(Cc2ccccc2C(F)(F)F)[C@@H]1c1ccc(CO)cc1	inactive: 1.04
C[C@@H]1CN([C@@H](C)CO)C(=O)c2cc(NC(=O)CCC(F)(F)F)ccc2O[C@@H](C)CCCCO[C@H]1CN(C)S(=O)(=O)c1ccc(Cl)cc1	inactive: 1.05
COc1ccc(NC(=O)Nc2ccc3c(c2)C(=O)N([C@H](C)CO)C[C@H](C)[C@H](CN(C)Cc2ccc(C(=O)O)cc2)OCCCC[C@H](C)O3)cc1	inactive: 1.02
C[C@@H]1CCCCO[C@H](CN(C)Cc2ccc3c(c2)OCO3)[C@@H](C)CN([C@H](C)CO)C(=O)c2cc(NS(=O)(=O)c3ccc(Cl)cc3)ccc2O1	inactive: 0.993
O=C(O)c1cc2ccccc2s1	inactive: 0.906
CCCNC(=O)N(C)C[C@H]1Oc2cc(-c3ccccc3F)ccc2S(=O)(=O)N([C@H](C)CO)C[C@H]1C	inactive: 1.02
COCCOC(=O)N1C(=O)[C@@]2(c3ccccc31)[C@H](c1ccc(OCCO)cc1)N1[C@H](c3ccccc3)[C@H](c3ccccc3)OC(=O)[C@H]1[C@@H]2C(=O)Nc1nc2ccccc2s1	inactive: 1.01
C[C@@H]1CCCCO[C@H](CN(C)C(=O)c2ccccc2)[C@@H](C)CN([C@H](C)CO)C(=O)c2cc(NS(=O)(=O)c3cccs3)ccc2O1	inactive: 1.01
COCC(=O)N[C@@H]1C=C[C@@H](CC(=O)N2CCCCC2)O[C@H]1CO	inactive: 1.04
C[C@H](CO)N1C[C@H](C)[C@H](CN(C)C(=O)CN(C)C)Oc2cc(C#CCN(C)C)ccc2S1(=O)=O	inactive: 1.02
C[C@@H]1CN([C@H](C)CO)C(=O)c2cc(C#CC3(O)CCCC3)cnc2O[C@@H]1CN(C)C(=O)C1CCOCC1	inactive: 1.01
COc1ccc(S(=O)(=O)N(C)C[C@@H]2OCCCC[C@@H](C)Oc3ccc(NS(C)(=O)=O)cc3C(=O)N([C@H](C)CO)C[C@H]2C)cc1	inactive: 0.994
COc1cccc(C#Cc2ccc([C@@H]3[C@H](CO)N4C(=O)CN(S(=O)(=O)c5ccccc5C)C[C@@H]34)cc2)c1	inactive: 1.02
NC(=O)c1c(F)c(F)c(N)c(F)c1F	inactive: 0.986
Cc1noc(C)c1S(=O)(=O)Nc1cccc2c1O[C@@H](CN(C)S(=O)(=O)c1ccccc1)[C@@H](C)CN([C@@H](C)CO)C2=O	inactive: 0.989
CCCCCNCC(N)=O	inactive: 1.03
C[C@H]1CN([C@@H](C)CO)C(=O)c2cc(C3=CCCCC3)cnc2O[C@@H]1CN(C)C(=O)CN1CCOCC1	inactive: 0.985
C[C@H](CO)N1C[C@H](C)[C@@H](CN(C)C(=O)Nc2ccccc2)Oc2ccc(NC(=O)Nc3cccc4ccccc34)cc2CC1=O	inactive: 1.03

Compound	relative growth
CC(C)NC(=O)Nc1ccc2c(c1)C(=O)N([C@@H](C)CO)C[C@@H](C)[C@H](CN(C)S(=O)(=O)c1cccs1)O2	inactive: 0.973
NC(=O)c1cccc(S(N)(=O)=O)c1	inactive: 1.01
C[C@H](CO)N1C[C@H](C)[C@@H](CN(C)C(=O)Nc2cccc3ccccc23)OCCCC[C@H](C)Oc2ccc(NC(=O)c3ccncc3)cc2C1=O	inactive: 1.01
COc1ccc(S(=O)(=O)N(C)C[C@H]2Oc3c(NC(=O)C4CCOCC4)cccc3C(=O)N([C@@H](C)CO)C[C@@H]2C)cc1	inactive: 0.997
C[C@@H]1CCCCO[C@H](CN(C)S(=O)(=O)c2cn(C)cn2)[C@@H](C)CN([C@@H](C)CO)C(=O)c2cc(N(C)C)ccc2O1	inactive: 0.994
C[C@H](CO)N1C[C@H](C)[C@@H](CN(C)Cc2cccc3c2OCCCO3)OCc2cnnn2CCCC1=O	inactive: 0.992
C[C@H]1CCCCO[C@H](CN(C)S(=O)(=O)c2ccccc2)[C@@H](C)CN([C@@H](C)CO)C(=O)c2cc(NC(=O)NC3CCCCC3)ccc2O1	inactive: 1.02
COc1ccc(S(=O)(=O)N(C)C[C@@H]2Oc3ccc(NC(=O)CCCN(C)C)cc3CC(=O)N([C@@H](C)CO)C[C@H]2C)cc1	inactive: 1
C[C@H]1CN([C@@H](C)CO)C(=O)c2cccc(NC(=O)Nc3ccccc3)c2O[C@H]1CN(C)S(C)(=O)=O	inactive: 0.979
C[C@@H]1CCCCO[C@@H](CN(C)Cc2ccc(C(=O)O)cc2)[C@H](C)CN([C@H](C)CO)C(=O)c2cc(NC(=O)Nc3ccc(F)cc3)ccc2O1	inactive: 1.02
COc1cc(N2CCN(S(C)(=O)=O)CC2)nc(C)n1	inactive: 1.03
C[C@H]1CN([C@@H](C)CO)C(=O)Cc2cc(NC(=O)Nc3ccc(F)cc3)ccc2O[C@H]1CN(C)Cc1ccc(-c2ccccc2)cc1	inactive: 1.04
S=C1NCN(C2CCCC2)CN1	inactive: 1.05
C[C@@H]1CN([C@@H](C)CO)C(=O)CCCn2nncc2CO[C@@H]1CN(C)S(=O)(=O)c1cccc(C#N)c1	inactive: 1
COc1ccc([Si](C)(C)[C@H]2[C@H](CCn3cc([C@H](O)c4ccccc4)nn3)O[C@@]3(C(=O)N(c4ccccc4)c4ccccc43)[C@@H]2C)cc1	inactive: 0.895
COc1ccc(S(=O)(=O)N(C)C[C@H]2Oc3c(NC(=O)c4cnccn4)cccc3C(=O)N([C@H](C)CO)C[C@H]2C)cc1	inactive: 0.989
COc1ccccc1NC(=O)N(C)C[C@@H]1OCc2ccccc2-c2c(n(C)c3ccccc23)C(=O)N([C@@H](C)CO)C[C@H]1C	inactive: 1.02
NC(=O)[C@H]1[C@@H]2C(=O)O[C@@H](c3ccccc3)[C@@H](c3ccccc3)N2[C@@H](c2ccccc2OCCO)[C@]12C(=O)Nc1ccc(C#CC3=CCCCC3)cc12	inactive: 1.03
C[C@H](CO)N1C[C@H](C)[C@H](CN(C)Cc2ccc(C(F)(F)F)cc2)Oc2ccc(NC(=O)Nc3ccc(F)cc3)cc2C1=O	inactive: 0.993
Nc1nnc(CO)[nH]1	inactive: 1.02
C[C@@H]1CCCCO[C@H](CN(C)C(=O)Nc2cccc3ccccc23)[C@H](C)CN([C@H](C)CO)C(=O)c2cc(NS(=O)(=O)c3ccc(F)cc3)ccc2O1	inactive: 1.02

Compound	relative growth
COc1ccc(NC(=O)Nc2ccc3c(c2)C(=O)N([C@@H](C)CO)C[C@H](C)[C@@H](CN(C)Cc2ccc(Cl)c(Cl)c2)OCCCC[C@@H](C)O3)cc1	inactive: 1.06
C[C@H](CO)N1C[C@H](C)[C@@H](CN(C)Cc2ccc3c(c2)OCO3)Oc2c(NC(=O)C3CCOCC3)cccc2C1=O	inactive: 0.988
C[C@H](CO)N1C[C@H](C)[C@H](CN(C)C(=O)NC2CCCCC2)OCCCC[C@H](C)Oc2ccc(NC(=O)Nc3ccc(F)cc3)cc2C1=O	inactive: 1.02
COc1ccc(S(=O)(=O)N(C)C[C@H]2Oc3ccc(NS(=O)(=O)c4ccc(F)cc4)cc3CC(=O)N([C@@H](C)CO)C[C@@H]2C)cc1	inactive: 1.01
CC(C)NC(=O)Nc1ccc2c(c1)C(=O)N([C@H](C)CO)C[C@H](C)[C@H](CN(C)C(=O)Nc1cccc3ccccc13)OCCCC[C@@H](C)O2	inactive: 1.01
C[C@H](CO)N1C[C@H](C)[C@@H](CN(C)S(C)(=O)=O)OCc2cnnn2CCCC1=O	inactive: 1.07
NS(=O)(=O)c1cc(C2(O)NC(=O)c3ccccc32)ccc1Cl (configuration not stated)	inactive: 0.986
O=C(C[C@@H]1C[C@H]2c3cc(NC(=O)NC4CCCC4)ccc3O[C@H]2[C@H](CO)O1)NCc1ccc(Oc2ccccc2)cc1	inactive: 0.982
COc1cccc(S(=O)(=O)N2C[C@@H](O)COC[C@H]3O[C@@H](CC(=O)NCCCN4CCOCC4)CC[C@@H]32)c1	inactive: 1
O=C(C[C@@H]1C[C@H]2c3cc(NC(=O)Cc4ccncc4)ccc3O[C@H]2[C@H](CO)O1)NCc1ccc2c(c1)OCO2	inactive: 0.995
COc1ccc(NC(=O)N(C)C[C@H]2Oc3ccc(NC(=O)CCN4CCOCC4)cc3CC(=O)N([C@H](C)CO)C[C@@H]2C)cc1	inactive: 1.01
CCCC(=O)Nc1ccc2c(c1)C(=O)N(C)[C@@H]1CC[C@@H](CC(=O)NCCN3CCCCC3)O[C@H]1CO2	inactive: 0.966
O=C1NN=COc2ccccc21	inactive: 1
COc1ccc(NC(=O)N2CCCCN3[C@H](COCCN(C)C)[C@H](c4ccc(C#Cc5ccccc5)cc4)[C@@H]3C2)cc1	inactive: 0.969
O=C(O)/C=C/C(=O)NN1C(=O)c2ccccc2C1=O	inactive: 1.04
CC(C)NC(=O)N(C)C[C@@H]1Oc2ccc(NC(=O)CCC(F)(F)F)cc2C(=O)N([C@@H](C)CO)C[C@@H]1C	inactive: 0.993
COC(=O)c1c2oc(c1C(=O)OC)C(=O)N[C@H](Cc1ccccc1)Cn1cc(nn1)CNC(=O)[C@H](Cc1ccccc1)NC(=O)N[C@@H](CO)CC2	inactive: 0.999
C[C@H]1CN([C@@H](C)CO)C(=O)c2cccc(NC(=O)C3CCOCC3)c2O[C@@H]1CN(C)S(=O)(=O)c1cn(C)cn1	inactive: 0.992
O=C(O)CNC(=O)C(=O)O	inactive: 1.02
C[C@@H]1CN([C@@H](C)CO)C(=O)Cc2cc(NC(=O)Nc3ccc(C(F)(F)F)cc3)ccc2O[C@H]1CN(C)Cc1ccccc1	inactive: 0.956
